# From the BET-seq Pho4 binding data (Le et al. 2018)
# The other results are listed elsewhere or left out. The energies were worked out here from pooled read counts, against the library average; single values are noisy.
# Target: T1, Pho4 (S. cerevisiae) (UniProt P07270)
# T1 sequence: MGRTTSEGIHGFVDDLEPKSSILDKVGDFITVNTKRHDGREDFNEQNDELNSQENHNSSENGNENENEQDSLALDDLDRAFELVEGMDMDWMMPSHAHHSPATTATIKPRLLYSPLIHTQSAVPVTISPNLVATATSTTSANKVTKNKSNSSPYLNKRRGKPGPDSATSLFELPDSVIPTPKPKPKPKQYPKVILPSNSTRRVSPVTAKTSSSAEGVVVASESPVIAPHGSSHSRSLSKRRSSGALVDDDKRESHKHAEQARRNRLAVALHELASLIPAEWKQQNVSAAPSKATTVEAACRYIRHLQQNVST
# Experiment: relative binding free energy (BET-seq); higher = weaker binding
# Conditions: reference: library average
row,Sequence,relative binding free energy [kcal/mol]
1,TGGTACACGTGTACGT,0.07
2,AGGTTCACGTGTTAGG,0.26
3,GATAGCACGTGGGCGG,-0.12
4,CCTTGCACGTGAGTTG,0.23
5,TCAGTCACGTGTAGGA,0.12
6,TATGTCACGTGAGTGT,0.18
7,AGTATCACGTGGGGTC,0.03
8,GGTGTCACGTGGAGGC,0.11
9,TTGTCCACGTGGAGGG,-0.04
10,ACGGGCACGTGCGGTG,-0.27
11,ATATGCACGTGTTAGT,-0.07
12,AAAGACACGTGGTAGT,-0.06
13,TGGGACACGTGCGGAG,0.07
14,AGTTTCACGTGATATA,0.28
15,GTATACACGTGATGTG,0.23
16,TTTTCCACGTGCGGGT,0.16
17,GTGTACACGTGGGGTG,-0.04
18,GGTTTCACGTGATGTA,0.43
19,GATGTCACGTGGATTA,0.15
20,AAGGACACGTGTGATT,0.15
21,GCTTTCACGTGATCGT,0.4
22,GTTTACACGTGAGTAA,0.35
23,GGGCACACGTGGTAGG,0.06

row,Sequence,relative binding free energy [kcal/mol]
1,TAAGTCACGTGACTTT,0.2
2,AGGGCCACGTGCGTGA,-0.17
3,TAGGCCACGTGAAGTT,0.14
4,GTGGGCACGTGAGTGG,0.23
5,GAGTTCACGTGAAGAT,0.54
6,CGTGGCACGTGTTACT,-0.08
7,GCGTTCACGTGTGGTA,0.28
8,GGGATCACGTGGGGTA,0.06
9,AGTGACACGTGGAGTA,-0.1
10,TAGGTCACGTGAAGGC,0.37
11,TGAAGCACGTGATATT,0.12
12,GTTAGCACGTGTAAAG,0.02
13,TTTTGCACGTGTCAGG,0.06
14,ATGTTCACGTGGGTCC,0.27
15,CTGTGCACGTGGTAAT,-0.12
16,TACGTCACGTGGATGG,0.25
17,CTTTGCACGTGGTTAA,-0.16
18,TGGTTCACGTGATATA,0.36
19,TGGGGCACGTGCCTGT,-0.2
20,TGTATCACGTGACGTA,0.14
21,CTTTACACGTGTGAAT,0.33
22,GGGTACACGTGATAGT,0.34
23,TGTGCCACGTGATATG,0.03

row,Sequence,relative binding free energy [kcal/mol]
1,CGTTTCACGTGAGTAA,0.32
2,CAGGGCACGTGTCGTT,0.03
3,TTTGACACGTGATGGG,0.15
4,GGAAACACGTGGGGCG,-0.02
5,TGCGGCACGTGCTGTG,-0.19
6,AATCGCACGTGAGGGG,0.21
7,AGCGGCACGTGGTCTG,-0.18
8,AGAGGCACGTGACGGT,-0.06
9,AGGGTCACGTGCGTAC,0.05
10,ACGTTCACGTGGGTAG,0.1
11,TTTATCACGTGTGATG,0.27
12,ATGGACACGTGGAGTA,0.1
13,TTGTGCACGTGGAGAT,0.01
14,GTGAGCACGTGTGTTC,-0.18
15,GTAGGCACGTGTATAA,-0.03
16,GTGATCACGTGCGTTG,-0.01
17,TGGACCACGTGTTTTT,0.05
18,GTGCACACGTGGCAGG,0.04
19,ATTTACACGTGTGGTA,0.09
20,TTGGGCACGTGTTCAG,-0.2
21,TTTTGCACGTGGTGGC,0.02
22,GGATACACGTGGGGCT,0.01
23,TTTGGCACGTGGCGTT,-0.11

row,Sequence,relative binding free energy [kcal/mol]
1,TTCAACACGTGTTAGG,0.09
2,GCTTTCACGTGACGGT,0.3
3,TTGCACACGTGTTAGA,0.15
4,TTTGGCACGTGGGGCC,-0.28
5,ATGGGCACGTGCGGTC,-0.06
6,GATGGCACGTGTTGTC,-0.01
7,TGTAACACGTGGCGTT,-0.15
8,TTATTCACGTGCGTGC,0.13
9,GCTGTCACGTGGATAT,0.12
10,ATCGCCACGTGTGTTG,-0.02
11,TGTCTCACGTGAGAGG,0.18
12,TTTAACACGTGTTTTC,-0.03
13,GGTCGCACGTGCGTTA,-0.07
14,ACTAGCACGTGATGTG,0.04
15,AGGTTCACGTGGGTAT,0.08
16,TGTGTCACGTGTCAAG,0.07
17,GAAAGCACGTGTGGTG,-0.1
18,TTTTACACGTGGTCTG,-0.03
19,GATTGCACGTGAGTCG,0.49
20,GGACGCACGTGGGTAT,-0.16
21,TGTGGCACGTGGCGAT,-0.07
22,CATTACACGTGGTCGT,0.06
23,GGTATCACGTGCTGGA,0.18

row,Sequence,relative binding free energy [kcal/mol]
1,TCATGCACGTGTGGAG,0.09
2,GGTGTCACGTGGCGAC,0.11
3,TGGGTCACGTGGGTCC,0.03
4,GCTAACACGTGGGTGT,-0.16
5,ATGTACACGTGTGTAG,0.04
6,GAGGGCACGTGTCGGA,-0.02
7,GAAGGCACGTGTTAAG,0.1
8,AGCGGCACGTGTATAT,0.01
9,GGACGCACGTGGAGTG,-0.14
10,GGAATCACGTGCTGGT,0.11
11,TATGGCACGTGTTGTG,-0.11
12,TCTTTCACGTGGGGGC,0.14
13,TCATGCACGTGGTGTT,-0.14
14,AAGAGCACGTGTTGGA,-0.21
15,CTGTTCACGTGTGAGT,0.39
16,TCTGTCACGTGGGCGG,-0.04
17,GGTTCCACGTGGTTCT,0.09
18,GGTGACACGTGATATG,0.13
19,CTGTTCACGTGAAGTA,0.41
20,AGATGCACGTGGGGAG,-0.2
21,TTTAGCACGTGTAATC,0.04
22,AAATTCACGTGGGTTA,0.24
23,TGTCTCACGTGGTGGA,0.22
